Source: US20250034274A1

Key:
[1] = target: biotinylated human TROP2 antigen (human) (UniProt P09758); assay: ELISA, immobilised biotinylated human TROP2, anti-human IgG-HRP, chemiluminescence; antibody pre-incubated with CAPN1
[2] = target: biotinylated human TROP2 antigen (human) (UniProt P09758); assay: ELISA, immobilised biotinylated human TROP2, anti-human IgG-HRP, chemiluminescence; antibody pre-incubated with uPA
[3] = target: biotinylated human TROP2 antigen (human) (UniProt P09758); assay: ELISA, immobilised biotinylated human TROP2, anti-human IgG-HRP, chemiluminescence; without protease
[4] = target: biotinylated human TROP2 antigen (human) (UniProt P09758); assay: ELISA, immobilised biotinylated human TROP2, anti-human IgG-HRP, chemiluminescence; antibody pre-incubated with uPA; remark: listed apart in the source

Chain of UniProt P09758 (P09758 27-274): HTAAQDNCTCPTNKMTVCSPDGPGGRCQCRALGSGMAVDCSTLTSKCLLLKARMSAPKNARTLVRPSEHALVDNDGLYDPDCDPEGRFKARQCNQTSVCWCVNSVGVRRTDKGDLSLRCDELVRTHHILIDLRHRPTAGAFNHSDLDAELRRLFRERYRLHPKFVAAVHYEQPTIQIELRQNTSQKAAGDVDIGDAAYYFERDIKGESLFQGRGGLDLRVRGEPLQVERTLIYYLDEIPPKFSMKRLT

Row | EC50 (read off the curve) [1] | EC50 (read off the curve) [2] | EC50 (read off the curve) [3] | EC50 (read off the curve) [4] | Binder
1 | 4 nM | 0.5 nM | 90 nM | 0.6 nM | anti-TROP2 masked antibody MHT3203 (antibody) heavy: GYLALKHPWPGLAEGSGGGGSGRSANAGGPLFAAPGGSQVQLVQSGAEVKKPGASVKVSCKASGYTFTTAGMQWVRQAPGQGLEWMGWINTHSGVPKYAEDFKGRVTISADTSTSTAYLQLSSLKSEDTAVYYCARSGFGSSYWYFDVWGQGTLVTVSSASTKGPSVFPLAPSSKSTSGGTAALGCLVKDYFPEPVTVSWNSGALTSGVHTFPAVLQSSGLYSLSSVVTVPSSSLGTQTYICNVNHKPSNTKVDKRV[human IgG1 Fc not shown] light: DIQMTQSPSSLSASVGDRVTITCKASQDVSTAVAWYQQKPGKAPKLLIYSASYRYTGVPSRFSGSGSGTDFTLTISSLQPEDFAVYYCQQHYITPLTFGQGTKLEIKRTVAAPSVFIFPPSDEQLKSGTASVVCLLNNFYPREAKVQWKVDNALQSGNSQESVTEQDSKDSTYSLSSTLTLSKADYEKHKVYACEVTHQGLSSPVTKSFNRGEC
2 | – | – | 100 nM | 0.5 to 0.6 nM | anti-TROP2 masked antibody MHT3219 (antibody) heavy: GYLALKHPWPGLAEGSGGGGPLFAAPGGSGRSANAGGSQVQLVQSGAEVKKPGASVKVSCKASGYTFTTAGMQWVRQAPGQGLEWMGWINTHSGVPKYAEDFKGRVTISADTSTSTAYLQLSSLKSEDTAVYYCARSGFGSSYWYFDVWGQGTLVTVSSASTKGPSVFPLAPSSKSTSGGTAALGCLVKDYFPEPVTVSWNSGALTSGVHTFPAVLQSSGLYSLSSVVTVPSSSLGTQTYICNVNHKPSNTKVDKRV[human IgG1 Fc not shown] light: DIQMTQSPSSLSASVGDRVTITCKASQDVSTAVAWYQQKPGKAPKLLIYSASYRYTGVPSRFSGSGSGTDFTLTISSLQPEDFAVYYCQQHYITPLTFGQGTKLEIKRTVAAPSVFIFPPSDEQLKSGTASVVCLLNNFYPREAKVQWKVDNALQSGNSQESVTEQDSKDSTYSLSSTLTLSKADYEKHKVYACEVTHQGLSSPVTKSFNRGEC
3 | – | – | 60 nM | 0.5 nM | anti-TROP2 masked antibody MHT3423 (antibody) heavy: GYLALKHPWPGLAEGSGGGGSGRSAGGGGGSGGGGSGGGGSGGGGSQVQLVQSGAEVKKPGASVKVSCKASGYTFTTAGMQWVRQAPGQGLEWMGWINTHSGVPKYAEDFKGRVTISADTSTSTAYLQLSSLKSEDTAVYYCARSGFGSSYWYFDVWGQGTLVTVSSASTKGPSVFPLAPSSKSTSGGTAALGCLVKDYFPEPVTVSWNSGALTSGVHTFPAVLQSSGLYSLSSVVTVPSSSLGTQTYICNVNHKPSNTKVDKRV[human IgG1 Fc not shown] light: DIQMTQSPSSLSASVGDRVTITCKASQDVSTAVAWYQQKPGKAPKLLIYSASYRYTGVPSRFSGSGSGTDFTLTISSLQPEDFAVYYCQQHYITPLTFGQGTKLEIKRTVAAPSVFIFPPSDEQLKSGTASVVCLLNNFYPREAKVQWKVDNALQSGNSQESVTEQDSKDSTYSLSSTLTLSKADYEKHKVYACEVTHQGLSSPVTKSFNRGEC
4 | 5 nM | – | 100 nM | 0.6 nM | anti-TROP2 masked antibody MHT3202 (antibody) heavy: GYLALKHPWPGLAEGSGGGGSGRSAGGPLFAAPGGSQVQLVQSGAEVKKPGASVKVSCKASGYTFTTAGMQWVRQAPGQGLEWMGWINTHSGVPKYAEDFKGRVTISADTSTSTAYLQLSSLKSEDTAVYYCARSGFGSSYWYFDVWGQGTLVTVSSASTKGPSVFPLAPSSKSTSGGTAALGCLVKDYFPEPVTVSWNSGALTSGVHTFPAVLQSSGLYSLSSVVTVPSSSLGTQTYICNVNHKPSNTKVDKRV[human IgG1 Fc not shown] light: DIQMTQSPSSLSASVGDRVTITCKASQDVSTAVAWYQQKPGKAPKLLIYSASYRYTGVPSRFSGSGSGTDFTLTISSLQPEDFAVYYCQQHYITPLTFGQGTKLEIKRTVAAPSVFIFPPSDEQLKSGTASVVCLLNNFYPREAKVQWKVDNALQSGNSQESVTEQDSKDSTYSLSSTLTLSKADYEKHKVYACEVTHQGLSSPVTKSFNRGEC
